The source of these data is the antibiotic and cytotoxicity screens of Wong et al. (2023).

One assay relates to HSkMC. Description: cytotoxicity call (relative viability < 0.9). As to conditions: 10 µM.
The test system of another assay is HepG2. Description: cytotoxicity call (relative viability < 0.9). Conditions: 10 µM.
Another assay relates to S. aureus RN4220. In words: growth inhibition call (relative growth <= 0.2). Conditions: 50 µM.

Structures are written as SMILES. The list shows a part of the results.

For `Cc1cccc(S(=O)(=O)N2C[C@H](O)COC[C@@H]3O[C@@H](CC(=O)NCc4ccncn4)CC[C@H]32)c1`, the cytotoxicity call in the assay on HSkMC and in the assay on HepG2 was “inactive” in each case. In addition, the growth inhibition call with S. aureus RN4220 is “inactive”.
`C[C@@H]1CN([C@@H](C)CO)S(=O)(=O)c2ccc(C#Cc3cccc(F)c3)cc2O[C@H]1CN(C)S(=O)(=O)c1cn(C)cn1`: the cytotoxicity call with HSkMC and in the assay on HepG2 was “inactive” in each case. In addition, in the assay with S. aureus RN4220, the growth inhibition call was “inactive”.
`Cc1cccc(S(=O)(=O)N2C[C@@H](O)COC[C@H]3O[C@H](CC(=O)NCc4ccncn4)CC[C@@H]32)c1`: the cytotoxicity call in the assay with HSkMC and in the assay on HepG2 was “inactive” each time. Also, in the assay with S. aureus RN4220, the growth inhibition call is “inactive”.
With `COc1ccc(NC(=O)N(C)C[C@@H]2Oc3ccc(NC(=O)CCCCCC(=O)Nc4ccccc4N)cc3CC(=O)N([C@@H](C)CO)C[C@H]2C)cc1`, the cytotoxicity call in the assay on HSkMC and with HepG2 was “inactive” in each case. Further, the growth inhibition call in the assay on S. aureus RN4220 is “inactive”.
As to `COc1ccc(NC(=O)N(C)C[C@@H]2OCCCC[C@H](C)Oc3ccc(NC(=O)Nc4ccc5c(c4)OCO5)cc3C(=O)N([C@@H](C)CO)C[C@@H]2C)cc1`, the cytotoxicity call with HSkMC and in the assay on HepG2 was “inactive” in each case. The growth inhibition call with S. aureus RN4220 is “inactive”.
Regarding `Cc1noc(C)c1NC(=O)Nc1ccc2c(c1)CC(=O)N([C@@H](C)CO)C[C@@H](C)[C@@H](CN(C)C(=O)NC(C)C)O2`, the cytotoxicity call in the assay on HSkMC and in the assay on HepG2 was “inactive” each time. Besides, the growth inhibition call with S. aureus RN4220 was “inactive”.
As to `C=CCc1ccc(O[C@@H]2O[C@H](CO[C@@H]3O[C@@H](C)[C@H](O)[C@@H](O)[C@H]3O)[C@@H](O)[C@H](O)[C@H]2O)c(O)c1`, the cytotoxicity call in the assay on HSkMC and in the assay with HepG2 was “inactive” throughout. The growth inhibition call in the assay on S. aureus RN4220 is “inactive”.
Consider `C[C@@H]1CCCCO[C@H](CN(C)C(=O)c2ccccc2)[C@@H](C)CN([C@@H](C)CO)C(=O)c2cc(NC(=O)Nc3cccc4ccccc34)ccc2O1`, for which the cytotoxicity call with HSkMC and with HepG2 was “inactive” each time. Besides, in the assay with S. aureus RN4220, the growth inhibition call was “inactive”.
Turning to `C[C@H](CO)N1C[C@H](C)[C@H](CN(C)Cc2ccc(Cl)c(Cl)c2)Oc2ccc(NS(=O)(=O)c3ccc(Cl)cc3)cc2C1=O`, the cytotoxicity call with HSkMC and with HepG2 was “active” in each case. Further, the growth inhibition call with S. aureus RN4220 was “inactive”.
On to `C[C@H]1CN([C@@H](C)CO)C(=O)Cc2cc(NC(=O)Nc3ccc(F)cc3)ccc2O[C@H]1CN(C)Cc1ccc(C(F)(F)F)cc1`, for which the cytotoxicity call in the assay on HSkMC and with HepG2 was “active” each time. In addition, the growth inhibition call in the assay on S. aureus RN4220 is “inactive”.
Consider `COc1ccc(CN(C)C[C@H]2OCCCC[C@H](C)Oc3ccc(NS(=O)(=O)c4ccc(C)cc4)cc3C(=O)N([C@@H](C)CO)C[C@H]2C)cc1`, for which the cytotoxicity call with HSkMC and with HepG2 was “inactive” each time. In addition, in the assay on S. aureus RN4220, the growth inhibition call was “inactive”.
For the molecule `C[C@@H]1CN([C@@H](C)CO)C(=O)c2cccc(NS(C)(=O)=O)c2O[C@H]1CN(C)C(=O)Nc1ccc(F)cc1`, the cytotoxicity call in the assay with HSkMC and in the assay with HepG2 was “inactive” in each case. Also, the growth inhibition call in the assay with S. aureus RN4220 is “inactive”.
`O=C1CNC(=S)N1c1ccccc1`: the cytotoxicity call in the assay on HSkMC and in the assay with HepG2 was “inactive” throughout. Besides, the growth inhibition call in the assay on S. aureus RN4220 is “inactive”.
With `O=C(CN1CCOCC1)N[C@H]1CC[C@H](CCNC(=O)C2CCCCC2)O[C@H]1CO`, the cytotoxicity call in the assay with HSkMC and with HepG2 was “inactive” each time. The growth inhibition call in the assay on S. aureus RN4220 was “inactive”.
Turning to `CCN(CC)S(=O)(=O)[C@H]1CCS(=O)(=O)C1`, the cytotoxicity call in the assay on HSkMC and in the assay on HepG2 was “inactive” throughout. Moreover, the growth inhibition call in the assay with S. aureus RN4220 is “inactive”.
As for `COc1ccc(NC(=O)Nc2cccc3c2O[C@@H](CN(C)CC2CCCCC2)[C@H](C)CN([C@H](C)CO)C3=O)cc1`, the cytotoxicity call in the assay with HSkMC and with HepG2 was “inactive” throughout. In addition, the growth inhibition call in the assay with S. aureus RN4220 is “inactive”.
Regarding `C[C@H](CO)N1C[C@H](C)[C@@H](CN(C)Cc2cncnc2)Oc2ncc(C#C[C@@H](C)O)cc2C1=O`, the cytotoxicity call with HSkMC and in the assay with HepG2 was “inactive” each time. In addition, the growth inhibition call in the assay on S. aureus RN4220 is “inactive”.
Consider `Cc1noc(C)c1NC(=O)N(C)C[C@@H]1OCCCC[C@@H](C)Oc2ccc(NC(=O)Nc3ccc4c(c3)OCO4)cc2C(=O)N([C@H](C)CO)C[C@@H]1C`, for which the cytotoxicity call in the assay with HSkMC and with HepG2 was “inactive” each time. The growth inhibition call with S. aureus RN4220 is “inactive”.
Take `C[C@@H]1CN([C@@H](C)CO)C(=O)c2cc(NS(=O)(=O)c3ccccc3)ccc2O[C@@H](C)CCCCO[C@@H]1CN(C)CC1CCCCC1`: the cytotoxicity call in the assay on HSkMC and in the assay on HepG2 was “inactive” in each case. The growth inhibition call with S. aureus RN4220 was “inactive”.
For `COc1ccc(CN(C)C[C@@H]2OCCCC[C@H](C)Oc3ccc(NS(=O)(=O)c4ccccc4)cc3C(=O)N([C@@H](C)CO)C[C@@H]2C)cc1`, the cytotoxicity call in the assay on HSkMC and in the assay with HepG2 was “inactive” in each case. In addition, the growth inhibition call in the assay with S. aureus RN4220 is “inactive”.
With `Cc1ccc(S(=O)(=O)Nc2ccc3c(c2)C(=O)N([C@H](C)CO)C[C@H](C)[C@H](CN(C)Cc2ccncc2)OCCCC[C@@H](C)O3)cc1`, the cytotoxicity call with HSkMC and in the assay with HepG2 was “inactive” throughout. In the assay on S. aureus RN4220, the growth inhibition call is “inactive”.
As to `CN(C)S(=O)(=O)N1CCN(CC(=O)Nc2ccc(Br)cc2)CC1`, the cytotoxicity call with HSkMC and with HepG2 was “inactive” throughout. Besides, the growth inhibition call in the assay with S. aureus RN4220 was “inactive”.
As for `C[C@@H]1CN([C@@H](C)CO)C(=O)c2c(c3ccccc3n2C)-c2ccccc2CO[C@@H]1CN(C)Cc1cccc(C(F)(F)F)c1`, the cytotoxicity call in the assay with HSkMC is “active”. The cytotoxicity call with HepG2 is “inactive”. Further, the growth inhibition call in the assay with S. aureus RN4220 is “inactive”.
Consider `Cc1cccc(S(=O)(=O)N2C[C@@H](O)COC[C@@H]3O[C@@H](CC(=O)N4CCN(C)CC4)CC[C@H]32)c1`, for which the cytotoxicity call in the assay on HSkMC and in the assay with HepG2 was “inactive” each time. In the assay with S. aureus RN4220, the growth inhibition call was “inactive”.
On to `CC(C)NC(=O)Nc1ccc2c(c1)CC(=O)N([C@H](C)CO)C[C@H](C)[C@@H](CN(C)S(=O)(=O)c1cccs1)O2`, for which the cytotoxicity call in the assay on HSkMC and in the assay on HepG2 was “inactive” each time. Also, in the assay on S. aureus RN4220, the growth inhibition call was “inactive”.
`O=C(C[C@H]1NC(=O)NC1=O)NCc1[nH]nc2c1CCC2`: the cytotoxicity call with HSkMC and with HepG2 was “inactive” each time. Moreover, in the assay with S. aureus RN4220, the growth inhibition call was “inactive”.
As for `CC(=O)Oc1ccc(-c2cc(=O)c3c(OC(C)=O)cc(OC(C)=O)cc3o2)cc1`, the cytotoxicity call in the assay with HSkMC and in the assay with HepG2 was “inactive” throughout. The growth inhibition call with S. aureus RN4220 was “inactive”.
Turning to `COc1ccc(CNc2nc(N3CCCC3CO)ncc2C(=O)NCc2ncccn2)cc1Cl` (centres undefined), the cytotoxicity call with HSkMC and in the assay on HepG2 was “inactive” throughout. For the same molecule, the growth inhibition call in the assay with S. aureus RN4220 was “inactive”.
On to `COc1ccc(S(=O)(=O)N(C)C[C@@H]2Oc3c(NC(=O)Nc4c(C)noc4C)cccc3C(=O)N([C@@H](C)CO)C[C@H]2C)cc1`, for which the cytotoxicity call in the assay on HSkMC and in the assay on HepG2 was “inactive” each time. Moreover, the growth inhibition call in the assay with S. aureus RN4220 is “inactive”.
As for `C[C@@H]1CN([C@@H](C)CO)C(=O)c2cccc(NS(=O)(=O)c3cn(C)cn3)c2O[C@@H]1CN(C)C(=O)Nc1ccc2c(c1)OCO2`, the cytotoxicity call in the assay with HSkMC and in the assay with HepG2 was “inactive” each time. Besides, the growth inhibition call with S. aureus RN4220 was “inactive”.
With `Cc1ccc(S(=O)(=O)Nc2ccc3c(c2)C(=O)N([C@H](C)CO)C[C@@H](C)[C@H](CN(C)C(=O)Nc2cccc4ccccc24)OCCCC[C@@H](C)O3)cc1`, in the assay on HSkMC, the cytotoxicity call is “inactive”. The cytotoxicity call in the assay with HepG2 is “active”. In the assay with S. aureus RN4220, the growth inhibition call was “inactive”.
`CN(C)CCCCNC(=O)[C@H]1C[C@H]2C(=O)N[C@@H](Cc3ccccc3)C(=O)N2[C@H]1c1cccc(OCCO)c1`: the cytotoxicity call in the assay with HSkMC and in the assay on HepG2 was “inactive” each time. Moreover, the growth inhibition call in the assay on S. aureus RN4220 was “inactive”.
Turning to `C[N+](C)(C)CCCCNC(=O)[C@H]1C[C@H]2C(=O)N[C@@H](CCCC[N+](C)(C)C)C(=O)N2[C@H]1c1ccc(O)cc1`, the cytotoxicity call in the assay on HSkMC and in the assay on HepG2 was “inactive” in each case. The growth inhibition call in the assay on S. aureus RN4220 is “inactive”.
For the molecule `C[C@@H]1CN([C@@H](C)CO)C(=O)c2cc(C#C[C@@H](C)O)cnc2O[C@@H]1CN(C)C(=O)CN1CCOCC1`, the cytotoxicity call with HSkMC and with HepG2 was “inactive” throughout. In addition, the growth inhibition call in the assay on S. aureus RN4220 was “inactive”.
Consider `CN(C)CC(=O)N[C@H]1CC[C@H](CCNS(=O)(=O)c2ccccc2)O[C@@H]1CO`, for which the cytotoxicity call with HSkMC and with HepG2 was “inactive” throughout. Also, the growth inhibition call with S. aureus RN4220 was “inactive”.
For the molecule `O=C(CCCCC(=O)N/N=C/c1cc(I)cc(I)c1O)NO`, the cytotoxicity call in the assay on HSkMC and in the assay on HepG2 was “inactive” each time. Besides, the growth inhibition call in the assay on S. aureus RN4220 is “active”.
As to `Cn1cc(N2C[C@]3(COCCN(C(=O)C4(C#N)CC4)C3)OCC2=O)cn1`, the cytotoxicity call in the assay on HSkMC and with HepG2 was “inactive” each time. In addition, in the assay on S. aureus RN4220, the growth inhibition call was “inactive”.
In the case of `COc1ccc([N+](=O)[O-])cc1CNCCO`, the cytotoxicity call in the assay with HSkMC and with HepG2 was “inactive” in each case. Moreover, the growth inhibition call in the assay on S. aureus RN4220 is “inactive”.
Consider `Cc1ccc(S(=O)(=O)N(C)C[C@H]2Oc3c(NS(C)(=O)=O)cccc3C(=O)N([C@@H](C)CO)C[C@H]2C)cc1`, for which the cytotoxicity call with HSkMC and with HepG2 was “inactive” throughout. The growth inhibition call with S. aureus RN4220 is “inactive”.
Regarding `C[C@H]1CCCCO[C@H](CN(C)Cc2ccc(C(F)(F)F)cc2)[C@@H](C)CN([C@@H](C)CO)C(=O)c2cc(NC(=O)Nc3ccc(C(F)(F)F)cc3)ccc2O1`, the cytotoxicity call in the assay on HSkMC (human skeletal muscle cells) is “inactive”. In addition, in the assay with HepG2, the cytotoxicity call is “active”. In addition, the growth inhibition call in the assay on S. aureus RN4220 was “inactive”.
On to `C[C@@H]1CN([C@H](C)CO)C(=O)c2c(c3ccccc3n2C)-c2ccccc2CO[C@H]1CN(C)C(=O)Nc1cccc(C(F)(F)F)c1`, for which the cytotoxicity call with HSkMC and in the assay with HepG2 was “inactive” each time. The growth inhibition call in the assay on S. aureus RN4220 was “inactive”.
Turning to `COc1cc(/C=C/c2cc(/C=C/c3ccc(O)c(OC)c3)n(CCc3ccccc3)c(=S)n2)ccc1O`, the cytotoxicity call in the assay with HSkMC and in the assay with HepG2 was “inactive” throughout. For the same molecule, the growth inhibition call in the assay with S. aureus RN4220 is “inactive”.
`O=C(C[C@H]1CC=CCC[C@H](Cc2ccc(F)cc2)C(=O)OC[C@H](Cc2ccccc2)NC1=O)NCCO`: the cytotoxicity call with HSkMC and with HepG2 was “inactive” each time. The growth inhibition call in the assay with S. aureus RN4220 is “inactive”.
